{
  "source": "PubChem BioAssay AID463173",
  "about": "(ICCB-Longwood Screening Facility, Harvard Medical School, 2010)",
  "note": "The whole screen tested about 52,000 compounds, of which about 4,300 (8.3%) were called active. Cut-off read from the data, not from the text of the source: active = survival mostly below about 52% (no sharp cut-off); inactive = mostly above about 56%. The list shows a part of the results.",
  "data": [
    {"system": "DeltatarO mutant", "test": "growth inhibition of S. aureus wild type versus tarO mutant, primary screen, teichoic acid synthesis inhibitors, RN4220, OD600 (AID 463173)", "details": "OD600, 18 h, active compounds read low, screened at 18.75 µg/mL (by protocol)", "values": [
      {"smiles": "CCCCSCCCNC(=O)C1CCC(CNS(=O)(=O)c2ccccc2)CC1", "note": "(stereo not given)", "survival": "inactive: 89%"},
      {"smiles": "CC(=O)c1ccc(NC(=O)c2cc(-c3ccc(Cl)c(Cl)c3)on2)cc1", "survival": "active: 47%"},
      {"smiles": "CCc1ccccc1NC(=O)C1CCCN(c2nnc(-n3c(C)ccc3C)s2)C1", "note": "(stereo not given)", "survival": "inactive: 73%"},
      {"smiles": "CCn1c(CN2CCOCC2)nc2cc(NC(=O)c3cc(OC)c(OC)c(OC)c3)ccc21", "survival": "inactive: 89%"},
      {"smiles": "CC(=O)c1ccc(NC(=O)C2CCC(CNS(=O)(=O)c3ccc4c(c3)CCCC(=O)N4)CC2)cc1", "note": "(stereo not given)", "survival": "inactive: 73%"},
      {"smiles": "CSc1nn(Cc2ccc(Br)cc2)c(N(C(C)=O)C(C)=O)c1S(=O)(=O)c1ccccc1", "survival": "inactive: 60%"},
      {"smiles": "Cc1c(C(=O)N(C)c2cccc(C(F)(F)F)c2)sc2nc3n(c(=O)c12)CCCCC3", "survival": "inactive: 100%"},
      {"smiles": "CCOc1ccc(OCC(=O)Nc2c(C(=O)Nc3ccc(C)cc3)oc3ccccc23)cc1", "survival": "inactive: 73%"},
      {"smiles": "CCOc1ccc(CNC(=O)c2cnc3sc(N4CCC(C)CC4)nn3c2=O)cc1OC", "survival": "inactive: 74%"},
      {"smiles": "COC(=O)C1=C(C)NC2=C(C(=O)CC(c3ccco3)C2)C1c1cccc(OC)c1", "note": "(stereo not given)", "survival": "inactive: 93%"},
      {"smiles": "O=S(=O)(Nc1cccc(-c2ccc(N3CCCCC3)nn2)c1)c1ccc(Cl)s1", "survival": "inactive: 84%"},
      {"smiles": "Fc1ccc(CNc2nc3ccc(Cl)cc3n3nnnc23)cc1", "survival": "inactive: 90%"},
      {"smiles": "COc1cccc(-n2c(=O)c3sc4ccccc4c3n(CC(=O)Nc3cccc(Cl)c3)c2=O)c1", "survival": "inactive: 69%"},
      {"smiles": "O=C(Nc1ccc(F)cc1F)c1ccc2c(=O)n3c(nc2c1)CCCCC3", "survival": "inactive: 57%"},
      {"smiles": "O=C(Nc1ccc2c(c1)N(C1CCCC1)C(=O)c1ccccc1S2)c1ccc(F)cc1", "survival": "inactive: 66%"},
      {"smiles": "O=S(=O)(c1cccc(Cl)c1)c1nnn2c1nc(NC1CCCCCC1)c1sccc12", "survival": "inactive: 106%"},
      {"smiles": "CCN(CC)CCCNC(=O)c1ccc2nc(CCc3ccccc3)oc2c1", "survival": "inactive: 92%"},
      {"smiles": "Cc1cc(C(=O)Nc2cccc(OC(C)C)c2)c(C)o1", "survival": "inactive: 105%"},
      {"smiles": "Cc1ccc(S(=O)(=O)c2c(C)nn(-c3ccccc3)c2OC(=O)c2ccccc2F)cc1", "survival": "inactive: 83%"},
      {"smiles": "CCN(CC)c1ccc(NC(=O)C2COc3ccc(OC)cc3C2)c(C)c1", "note": "(stereo not given)", "survival": "inactive: 135%"},
      {"smiles": "CCCC(=O)N(Cc1nc2ccccc2c(=O)[nH]1)C1CCCC1", "survival": "inactive: 102%"},
      {"smiles": "C=Cc1ccc(Cn2c(=O)n(-c3cccc(C)c3)c(=O)c3c2c2cc(C)ccc2n3C)cc1", "survival": "inactive: 107%"},
      {"smiles": "COc1ccc(-c2nc3ccccc3s2)cc1NC(=O)c1cc2ccccc2o1", "survival": "active: 38%"},
      {"smiles": "CC1CCc2onc(C(=O)N3CCN(c4cccc(C(F)(F)F)c4)CC3)c2C1", "note": "(stereo not given)", "survival": "active: 37%"},
      {"smiles": "Cc1ccc(NC(=O)CCNS(=O)(=O)c2cccc3nsnc23)cc1", "survival": "inactive: 57%"},
      {"smiles": "Cc1ccc(NC(=O)Cn2c(C)cc(C)c(C#N)c2=O)cc1F", "survival": "inactive: 94%"},
      {"smiles": "Cc1cc(C)c(/C=C/c2onc(C)c2S(=O)(=O)N2CCC(C(=O)N3CCN(c4ccc(Cl)cc4)CC3)CC2)c(C)c1", "survival": "inactive: 78%"},
      {"smiles": "Cc1ccc(C(=O)Nc2nc3n(n2)C(c2ccccc2)C=C(c2ccccc2)N3)cc1", "note": "(stereo not given)", "survival": "inactive: 57%"},
      {"smiles": "Cn1nnc(C(O)CNCc2ccc(F)cc2)n1", "note": "(stereo not given)", "survival": "inactive: 105%"},
      {"smiles": "CC(=O)N1CCCc2cc(S(=O)(=O)N3CCN(c4ccc(F)cc4)CC3)ccc21", "survival": "inactive: 87%"},
      {"smiles": "CCC(=O)OCCCNc1nc(-c2ccc(Cl)cc2)nc2ccccc12", "survival": "active: -2%"},
      {"smiles": "CCc1cccc(-n2nnc(-c3nc(-c4cccs4)no3)c2N)c1", "survival": "inactive: 72%"},
      {"smiles": "COc1ccc(NC(=O)c2noc3c2CSc2ccccc2-3)cc1Cl", "survival": "inactive: 73%"},
      {"smiles": "Clc1ccc2nc(-c3ccc(Br)o3)c(Nc3ccc4c(c3)OCCO4)n2c1", "survival": "inactive: 109%"},
      {"smiles": "COc1cccc(OC)c1C(=O)Nc1cccc(-c2nc3cc(C)cc(C)c3o2)c1", "survival": "inactive: 68%"},
      {"smiles": "O=C(Cn1nc(Cc2cccnc2)c2ccccc2c1=O)Nc1cccc(C(F)(F)F)c1", "survival": "inactive: 54%"},
      {"smiles": "CN1CCN(C(c2cccc(Br)c2)c2sc3nc(-c4ccco4)nn3c2O)CC1", "note": "(stereo not given)", "survival": "inactive: 70%"},
      {"smiles": "CCOc1ccc(-c2nonc2NC(=O)c2ccc(C)cc2)cc1OCC", "survival": "inactive: 100%"},
      {"smiles": "O=C(Cc1csc2ccccc12)NCc1ccccc1F", "survival": "inactive: 82%"},
      {"smiles": "CCOc1ccc(-c2nc(SCC(=O)Nc3ccc4c(c3)OCCO4)c(-c3ccc(F)cc3)[nH]2)cc1", "survival": "inactive: 97%"},
      {"smiles": "CCc1ccc(NC(=O)CN2C(=O)C(c3ccccc3)=NC23CCCCCC3)cc1", "survival": "inactive: 65%"},
      {"smiles": "CCc1ccc(NC(=O)N(Cc2ccc(C)cc2)Cc2cccn2-c2nnc(N3CCCC3=O)s2)cc1", "survival": "inactive: 105%"},
      {"smiles": "O=C(CSc1nc2ccsc2c(=O)n1Cc1ccccc1F)NCc1ccccc1", "survival": "inactive: 122%"},
      {"smiles": "O=C1CCC(=O)N1CNC1CCCCC1", "survival": "inactive: 110%"},
      {"smiles": "CC(C)OC(=O)C(N)c1ccccc1", "note": "(stereo not given)", "survival": "inactive: 98%"},
      {"smiles": "Cc1ccc(C(CC(=O)Nc2cc(C)cc(C)c2)N2Cc3ccccc3C2=O)cc1", "note": "(stereo not given)", "survival": "inactive: 71%"},
      {"smiles": "Clc1ccc(CNc2ccccn2)cc1", "survival": "inactive: 89%"},
      {"smiles": "Cc1cccc(NC(=O)CSc2nnc(C)c(=O)[nH]2)c1", "survival": "inactive: 84%"},
      {"smiles": "CCS(=O)(=O)NCC(c1ccco1)N1CCN(c2ccc(OC)cc2)CC1", "note": "(stereo not given)", "survival": "inactive: 91%"},
      {"smiles": "CCN(CC)c1ccc(-n2nc3cc(C)c(NC(=O)c4ccccc4F)cc3n2)cc1", "survival": "active: 56%"},
      {"smiles": "Cc1ccccc1CN1c2ccccc2-c2nc(SCC(=O)NCCc3ccccc3)ncc2S1(=O)=O", "survival": "inactive: 66%"},
      {"smiles": "Cc1ccc2nc(CSc3nnc(NC(=O)COc4ccccc4)s3)cc(=O)n2c1", "survival": "inactive: 67%"},
      {"smiles": "CCOC(=O)c1c(C)c(-c2ccccc2)n(CC(=O)NCCc2ccc(C)cc2)c1C", "survival": "inactive: 78%"},
      {"smiles": "CCCCc1ccc(NC(=O)COc2cccc3c(=O)n(C)ccc23)cc1", "survival": "inactive: 94%"},
      {"smiles": "CC(OC(=O)Cc1c[nH]c2ccccc12)C(=O)NC1CCCC1", "note": "(stereo not given)", "survival": "inactive: 94%"},
      {"smiles": "CCOC(=O)c1ccc(NC(=O)c2cc(=O)c3cc(CC)ccc3o2)cc1", "survival": "inactive: 62%"},
      {"smiles": "CCCc1cc(=O)n2[nH]c(-c3ccc(C)cc3)nc2n1", "survival": "inactive: 83%"},
      {"smiles": "COc1ccc(-c2cc(C(F)(F)F)nc(SCC(=O)NCCc3ccc(OC)c(OC)c3)n2)cc1", "survival": "inactive: 59%"},
      {"smiles": "Cc1ccc(NC(=O)N2CCC(CN3CCC(C)CC3)CC2)cc1F", "survival": "inactive: 89%"},
      {"smiles": "Cc1ccc(NC(=O)C2CCCN(c3nnc(-n4c(C)ccc4C)s3)C2)cc1Cl", "note": "(stereo not given)", "survival": "inactive: 80%"},
      {"smiles": "COc1cccc(CNC(=O)C(NS(=O)(=O)c2ccc3nc(C)sc3c2)C(C)C)c1", "note": "(stereo not given)", "survival": "inactive: 86%"},
      {"smiles": "COc1cc(CNC(=O)c2cc3n(n2)CCCN(Cc2ccc(C)cc2)C3=O)cc(OC)c1OC", "survival": "inactive: 58%"},
      {"smiles": "Cc1c(NC(=O)c2sc3c([N+](=O)[O-])cccc3c2Cl)cccc1-c1nc2ccccc2o1", "survival": "inactive: 65%"},
      {"smiles": "Cc1ccc(-c2c3c(=O)n(C)c(=O)n(C)c3c3c(C(F)(F)F)nc4ccccc4n23)cc1", "survival": "inactive: 77%"},
      {"smiles": "CC1(C)CC(=NNC(=O)c2n[nH]c3c2CCC3)CC(C)(C)N1", "survival": "inactive: 92%"},
      {"smiles": "CCS(=O)(=O)N1CC(=O)N(c2cccc(C)c2C)C(C)(C(=O)NC2CCCCC2)C1", "note": "(stereo not given)", "survival": "inactive: 83%"},
      {"smiles": "CCOC(=O)c1[nH]c(C)c(CCC(=O)Nc2ccc(N(CC)CC)cc2C)c1C", "survival": "inactive: 91%"},
      {"smiles": "CC(C)c1ccc(NC(=O)c2ccc(NC(=O)CCS(=O)(=O)c3cccs3)cc2)cc1", "survival": "inactive: 76%"},
      {"smiles": "Cc1ccc(CCNc2nc3c(S(=O)(=O)c4ccc(C)cc4)nnn3c3ccsc23)cc1", "survival": "inactive: 108%"},
      {"smiles": "Cc1ccc(-n2ncc3c(NCCCc4ccccc4)ncnc32)cc1C", "survival": "inactive: 88%"},
      {"smiles": "COC(=O)c1cc2oc(C)cc2n1CC(=O)Nc1ccc(C)cc1C", "survival": "inactive: 84%"},
      {"smiles": "O=C(Cn1c(=O)n(Cc2ccccc2)c(=O)c2oc3ccccc3c21)Nc1ccc(Cl)cc1", "survival": "inactive: 66%"},
      {"smiles": "Cc1ccc(/C=C/c2onc(C)c2S(=O)(=O)N2CCC(C(=O)N3CCOc4ccccc43)CC2)cc1", "survival": "inactive: 105%"},
      {"smiles": "CC(=O)Nc1cc(C(=O)NCc2ccc(F)cc2Cl)ccc1Sc1ccc(Cl)cc1", "survival": "inactive: 113%"},
      {"smiles": "Cc1nc(-c2ccc(F)cc2)sc1CCNC(=O)c1ccco1", "survival": "inactive: 116%"},
      {"smiles": "CCc1ccc(CNC(=O)CCN2C(=O)COc3ccccc32)cc1", "survival": "inactive: 66%"},
      {"smiles": "Cc1cc(C)cc(NC(=O)Cn2nnc(C(=O)Nc3cc(C)cc(C)c3)c2N)c1", "survival": "inactive: 74%"},
      {"smiles": "COc1cc(NC(=O)Cn2c(C)cc3ccccc3c2=O)cc(OC)c1OC", "survival": "inactive: 59%"},
      {"smiles": "CN1c2ccccc2Oc2nnc(N3CCN(Cc4ccccc4)CC3)cc21", "survival": "inactive: 93%"},
      {"smiles": "COc1cc(OC)cc(C(=O)Nc2c(C(=O)Nc3ccc(F)cc3)oc3ccccc23)c1", "survival": "inactive: 62%"},
      {"smiles": "CSc1ccc(CCNC(=O)C(C)n2c(C)c3cnn(-c4ccccc4)c(=O)c3c2C)cc1", "note": "(stereo not given)", "survival": "inactive: 60%"},
      {"smiles": "Cc1oc(C2CC2)cc1C(=O)O", "survival": "inactive: 70%"},
      {"smiles": "NC(=O)c1cc(S(=O)(=O)N2CCCCC2)cs1", "survival": "inactive: 66%"},
      {"smiles": "COc1ccc(NC(=O)Cn2nnc(C(=O)NCc3ccccc3Cl)c2N)cc1Cl", "survival": "inactive: 66%"},
      {"smiles": "COc1ccc(CCn2c3c(c(=O)[nH]c2=O)C(NC(=O)c2ccccc2)(C(F)(F)F)C(=O)N3)cc1OC", "note": "(stereo not given)", "survival": "inactive: 58%"},
      {"smiles": "O=C(CCS(=O)(=O)c1ccc2c(c1)NC(=O)CO2)Nc1cccc(C(F)(F)F)c1", "survival": "inactive: 90%"},
      {"smiles": "CCNC(=O)CC1C(=O)N(c2ccc(C)cc2)C(=O)N1Cc1ccc(C)cc1", "note": "(stereo not given)", "survival": "inactive: 78%"},
      {"smiles": "Oc1ccc(Cl)cc1Nc1nc2ccccc2n2cnnc12", "survival": "inactive: 67%"},
      {"smiles": "O=C(CC(c1ccccc1)c1cc(Br)ccc1O)NCC1(c2ccccc2)CCCC1", "note": "(stereo not given)", "survival": "inactive: 127%"},
      {"smiles": "COc1ccc(CNC(=O)CCCc2cn(C)c3ccccc23)c(OC)c1", "survival": "inactive: 87%"}
    ]}
  ]
}
